Source: PubChem BioAssay (NCI)
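Tested at 5 concentrations; 48 h exposure; 96-well plates; endpoints linearly interpolated, else capped at highest concentration. Abbreviation: GI50, concentration required for 50% inhibition of growth. TGI is the concentration that stops growth completely.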 Numbered stars: 1 amine (or outer) side, 2 acyl side, 3 side chain; on linkers, the order of the positions; unused ones are H or OH. Square brackets hold non-standard residues; d marks the D form. Peptide text beside a SMILES is read from it. * marks the point of attachment. X9 = C/C=C/CC(C)C(O)[C@H](N[*:1])C(=O)[*:2]; Decanoyl = CCCCCCCCCC(=O)*; Leu(ol) = CC(C)C[C@H](N)CO; Aib = CC(C)(N)C(=O)O

What follows are compounds tested on NCI-H322M lung (assay: DTP human tumour cell line panel, 48 h).
For `CN1CCN(Cc2ccc(NC(=O)c3cncc(C#Cc4cnc5ccc(N6CCOCC6)nn45)c3)cc2C(F)(F)F)CC1`, the GI50 was 0.0865 µM and the TGI was 0.317 µM.
In the case of `CCN1C(=O)N(CC)C2SC(N/N=C/c3cccs3)=NC21` (configuration not stated), the GI50 is reported as 0.944 µM and the TGI is reported as over 100 µM.
`CCc1ccc(SC2c3ccc(N(CC)CC)cc3Oc3nc(N)c(C#N)c(N)c32)cc1` (configuration not stated) showed a GI50 of 1.56 µM and a TGI of 2.91 µM.
Work on `CN1CCN(Cc2ccc(NC(=O)c3cncc(C#Cc4cnc5ccc(N)nn45)c3)cc2C(F)(F)F)CC1` yielded a GI50 of 1.81 µM and a TGI of 8.86 µM.
`C/C=C/CC(C)C(O)[C@H](NC(=O)[C@@H]1CCCN1C(=O)C(C)(C)NC(=O)CCCCCCCCC)C(=O)NC(C)(C)C(=O)N[C@@H](CCC(N)=O)C(=O)N[C@H](CCC(N)=O)C(=O)NC(C)(C)C(=O)NC(C)(C)C(=O)N[C@@H](CCC(N)=O)C(=O)N[C@H](CC(C)C)C(=O)N[C@H](CO)CC(C)C` (stereo partly drawn) (Decanoyl-[Aib]P[X9][Aib]Q[dQ][Aib][Aib]Q[dL][Leu(ol)]) gave a GI50 of 2.05 µM and a TGI of 5.51 µM.
For `CN1CCN(Cc2ccc(NC(=O)c3cncc(C#Cc4cnc5ccc(OCCCS(C)(=O)=O)nn45)c3)cc2C(F)(F)F)CC1`, the GI50 was 0.722 µM and the TGI was 2.81 µM.
